# According to the supplement of paper PMC8728848:
# The list shows a part of the results.
# How the values were obtained:
# Assay in all cases: glycan array binding signal (z-score within array); higher = stronger binding
# Conditions in all cases: glycan notation: IUPAC condensed, linker removed
# Neu5Ac(a2-3)Gal = biological target: Neu5Ac(a2-3)Gal
# In short: (§1)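 The binding signal is a Z-score computed within each array and averaged over linkers. Arrays of the same protein sequence at different concentrations or buffers were also averaged together. Data originate from 3228 arrays in the Consortium for Functional Glycomics database, kept only where the protein sequence was available.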
# [1] = biological target: Neu5Ac(a2-3)Gal(b1-3)GalNAc
# In short: as §1
# [2] = biological target: Neu5Ac(a2-3)Gal(b1-3)GalNAc(b1-3)Gal(a1-4)Gal(b1-4)Glc
# In short: as §1
# [3] = biological target: Neu5Ac(a2-3)Gal(b1-3)GalNAc(b1-4)[Neu5Ac(a2-3)]Gal(b1-4)Glc
# In short: as §1
# [4] = biological target: Neu5Ac(a2-3)Gal(b1-3)GalNAc(b1-4)[Neu5Ac(a2-8)Neu5Ac(a2-3)]Gal(b1-4)Glc
# In short: as §1
# [5] = biological target: Neu5Ac(a2-3)Gal(b1-3)GalNAc6S
# In short: as §1
# [6] = biological target: Neu5Ac(a2-3)Gal(b1-3)GlcNAc
# In short: as §1
# [7] = biological target: Neu5Ac(a2-3)Gal(b1-3)GlcNAc(b1-2)Man
# In short: as §1
# [8] = biological target: Neu5Ac(a2-3)Gal(b1-3)GlcNAc(b1-2)Man(a1-3)[GlcNAc(b1-4)][Neu5Ac(a2-3)Gal(b1-3)GlcNAc(b1-2)Man(a1-6)]Man(b1-4)GlcNAc(b1-4)GlcNAc
# In short: as §1
# [9] = biological target: Neu5Ac(a2-3)Gal(b1-3)GlcNAc(b1-2)Man(a1-3)[Neu5Ac(a2-3)Gal(b1-3)GlcNAc(b1-2)Man(a1-6)]Man(b1-4)GlcNAc(b1-4)GlcNAc
# In short: as §1
# [10] = biological target: Neu5Ac(a2-3)Gal(b1-3)GlcNAc(b1-3)Gal(b1-3)GlcNAc
# In short: as §1
# [11] = biological target: Neu5Ac(a2-3)Gal(b1-3)GlcNAc(b1-3)Gal(b1-4)GlcNAc
# In short: as §1
# [12] = biological target: Neu5Ac(a2-3)Gal(b1-3)GlcNAc(b1-3)GalNAc
# In short: as §1
# [13] = biological target: Neu5Ac(a2-3)Gal(b1-3)GlcNAc(b1-4)Gal(b1-4)Glc
# In short: as §1
# [14] = biological target: Neu5Ac(a2-3)Gal(b1-3)GlcNAc(b1-6)GalNAc
# In short: as §1
# [15] = biological target: Neu5Ac(a2-3)Gal(b1-3)GlcNAc6S
# In short: as §1
# [16] = biological target: Neu5Ac(a2-3)Gal(b1-3)[Fuc(a1-4)]GlcNAc
# In short: as §1
# [17] = biological target: Neu5Ac(a2-3)Gal(b1-3)[Fuc(a1-4)]GlcNAc(b1-3)Gal(b1-3)[Fuc(a1-4)]GlcNAc
# In short: as §1
# [18] = biological target: Neu5Ac(a2-3)Gal(b1-3)[Fuc(a1-4)]GlcNAc(b1-3)Gal(b1-4)[Fuc(a1-3)]GlcNAc
# In short: as §1
# [19] = biological target: Neu5Ac(a2-3)Gal(b1-3)[GlcNAc(b1-6)]GalNAc
# In short: as §1
# [20] = biological target: Neu5Ac(a2-3)Gal(b1-3)[Neu5Ac(a2-6)]GalNAc
# In short: as §1
# [21] = biological target: Neu5Ac(a2-3)Gal(b1-3)[Neu5Ac(a2-6)]GlcNAc(b1-3)[Fuc(a1-3)[Gal(b1-4)]GlcNAc(b1-6)]Gal(b1-4)Glc
# In short: as §1
# [22] = biological target: Neu5Ac(a2-3)Gal(b1-3)]Neu5Ac(a2-3)Gal(b1-4)]GlcNAc
# In short: as §1
# Neu5Ac(a2-3)Gal(b1-4)Glc = biological target: Neu5Ac(a2-3)Gal(b1-4)Glc
# In short: as §1
# [23] = biological target: Neu5Ac(a2-3)Gal(b1-4)GlcNAc
# In short: as §1
# [24] = biological target: Neu5Ac(a2-3)Gal(b1-4)GlcNAc(b1-2)Man
# In short: as §1
# [25] = biological target: Neu5Ac(a2-3)Gal(b1-4)GlcNAc(b1-2)Man(a1-3)[GlcNAc(b1-4)][Neu5Ac(a2-3)Gal(b1-4)GlcNAc(b1-2)Man(a1-6)]Man(b1-4)GlcNAc(b1-4)GlcNAc
# In short: as §1
# [26] = biological target: Neu5Ac(a2-3)Gal(b1-4)GlcNAc(b1-2)Man(a1-3)[Neu5Ac(a2-3)Gal(b1-4)GlcNAc(b1-2)Man(a1-6)]Man(b1-4)GlcNAc(b1-4)GlcNAc
# In short: as §1
# [27] = biological target: Neu5Ac(a2-3)Gal(b1-4)GlcNAc(b1-2)Man(a1-3)[Neu5Ac(a2-3)Gal(b1-4)GlcNAc(b1-2)Man(a1-6)]Man(b1-4)GlcNAc(b1-4)[Fuc(a1-6)]GlcNAc
# In short: as §1
# [28] = biological target: Neu5Ac(a2-3)Gal(b1-4)GlcNAc(b1-2)Man(a1-3)[Neu5Ac(a2-6)Gal(b1-4)GlcNAc(b1-2)Man(a1-6)]Man(b1-4)GlcNAc(b1-4)GlcNAc
# In short: as §1
# [29] = biological target: Neu5Ac(a2-3)Gal(b1-4)GlcNAc(b1-2)[Neu5Ac(a2-3)Gal(b1-4)GlcNAc(b1-4)]Man(a1-3)[GlcNAc(b1-4)][Neu5Ac(a2-3)Gal(b1-4)GlcNAc(b1-2)[Neu5Ac(a2-3)Gal(b1-4)GlcNAc(b1-6)]Man(a1-6)]Man(b1-4)GlcNAc(b1-4)GlcNAc
# In short: as §1
# [30] = biological target: Neu5Ac(a2-3)Gal(b1-4)GlcNAc(b1-2)[Neu5Ac(a2-3)Gal(b1-4)GlcNAc(b1-4)]Man(a1-3)[GlcNAc(b1-4)][Neu5Ac(a2-3)Gal(b1-4)GlcNAc(b1-4)Man(a1-6)]Man(b1-4)GlcNAc(b1-4)GlcNAc
# In short: as §1
# [31] = biological target: Neu5Ac(a2-3)Gal(b1-4)GlcNAc(b1-2)[Neu5Ac(a2-3)Gal(b1-4)GlcNAc(b1-6)]Man(a1-6)[Neu5Ac(a2-3)Gal(b1-4)GlcNAc(b1-2)Man(a1-3)]Man(b1-4)GlcNAc(b1-4)GlcNAc
# In short: as §1
# [32] = biological target: Neu5Ac(a2-3)Gal(b1-4)GlcNAc(b1-2)[Neu5Ac(a2-3)Gal(b1-4)GlcNAc(b1-6)]Man(a1-6)[Neu5Ac(a2-3)Gal(b1-4)GlcNAc(b1-2)Man(a1-3)][GlcNAc(b1-4)]Man(b1-4)GlcNAc(b1-4)GlcNAc
# In short: as §1
# [33] = biological target: Neu5Ac(a2-3)Gal(b1-4)GlcNAc(b1-3)Gal
# In short: as §1
# [34] = biological target: Neu5Ac(a2-3)Gal(b1-4)GlcNAc(b1-3)Gal(b1-3)GlcNAc
# In short: as §1
# [35] = biological target: Neu5Ac(a2-3)Gal(b1-4)GlcNAc(b1-3)Gal(b1-4)GlcNAc
# In short: as §1
binder,measurement,setting,value
"MGL2 (Mus musculus), Q8JZN1 (protein) MTMRYENFQNLEREEKNQEMRNGDKKGGMESPKFALIPSQSFLWRILSWTHLLLFSLGLSLLLLVVISVIGSQNSQLRRDLGTLRAILDNTTSKIKAEFQSLDSRADNFEKGISSLKVDVEDHRQELQAGRDLSQKVTSLESTLEKREQALKTDLSDLTDHVQQLETDLKALTCQLANLKNNGSEVACCPLHWTEHEGSCYWFSESEKSWPEADKYCRLENSHLVVVNSLEEQNFLQNRLANVLSWMGLTDQNGPWRWVDGTDFDKGFKNWRPLQPDNWHGHMLGGGEDCAHFSYDGRWNDDVCQRHYHWICETELGKASSAHSPQLIASVP",glycan array binding signal (z-score),Neu5Ac(a2-3)Gal,-0.115
same,glycan array binding signal (z-score),[1],-0.237
same,glycan array binding signal (z-score),[2],-0.189
same,glycan array binding signal (z-score),[3],-0.18
same,glycan array binding signal (z-score),[4],-0.174
same,glycan array binding signal (z-score),[5],-0.228
same,glycan array binding signal (z-score),[6],-0.254
same,glycan array binding signal (z-score),[7],-0.179
same,glycan array binding signal (z-score),[8],-0.189
same,glycan array binding signal (z-score),[9],-0.154
same,glycan array binding signal (z-score),[10],-0.22
same,glycan array binding signal (z-score),[11],-0.274
same,glycan array binding signal (z-score),[12],-0.123
same,glycan array binding signal (z-score),[13],-0.183
same,glycan array binding signal (z-score),[14],0.635
same,glycan array binding signal (z-score),[15],0.221
same,glycan array binding signal (z-score),[16],-0.173
same,glycan array binding signal (z-score),[17],-0.126
same,glycan array binding signal (z-score),[18],-0.223
same,glycan array binding signal (z-score),[19],-0.223
same,glycan array binding signal (z-score),[20],-0.073
same,glycan array binding signal (z-score),[21],-0.24
same,glycan array binding signal (z-score),[22],-0.169
same,glycan array binding signal (z-score),Neu5Ac(a2-3)Gal(b1-4)Glc,-0.191
same,glycan array binding signal (z-score),[23],0.136
same,glycan array binding signal (z-score),[24],-0.034
same,glycan array binding signal (z-score),[25],-0.204
same,glycan array binding signal (z-score),[26],-0.193
same,glycan array binding signal (z-score),[27],-0.133
same,glycan array binding signal (z-score),[28],-0.135
same,glycan array binding signal (z-score),[29],-0.098
same,glycan array binding signal (z-score),[30],-0.2
same,glycan array binding signal (z-score),[31],-0.042
same,glycan array binding signal (z-score),[32],-0.247
same,glycan array binding signal (z-score),[33],-0.3
same,glycan array binding signal (z-score),[34],-0.278
same,glycan array binding signal (z-score),[35],-0.262
